{"source": "PubChem BioAssay AID686978", "about": "(National Center for Advancing Translational Sciences (NCATS), 2013)", "note": "The campaign covered roughly 420,000 compounds. About 64,000 (15%) were called active. Inconclusive means that the source gave no clear call. Such entries were picked first, then a sample of the others. The call rests on the fitted dose curve; in most records, active means well fitted inhibition curve with a large enough effect; inconclusive means small, poorly fitted or top-dose-only effect; inactive means flat fitted curve, though single readings scatter. No potency is given beside an inconclusive call; the fits are too rough. On the % scale 0 is the no-effect control and ±100 the full control effect; potency means the concentration at half of the fitted maximal effect; tags describe the fitted curve by direction and shape."}
{"assay": "qHTS for Inhibitors of human tyrosyl-DNA phosphodiesterase 1 (TDP1): qHTS in cells in absence of CPT; further: nearly all actives have a fitted effect of over 55% in size", "details": "DT40 Tdp1-/- hTDP1 cells, no CPT, ATP luminescence, 48 h; activity change, negative = growth inhibition: at 46.2 µM (top of the series)", "how_it_was_run": "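Cells were dispensed at 400 per well, compounds added by pin tool, plates incubated ≥48 hr at 37 °C, then CellTiter-Glo added for 30 min at room temperature before luminescence reading. Line: DT40 Tdp1-/- complemented with hTDP1; camptothecin omitted.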"}
{"smiles": "COC(=O)c1cc(S(=O)(=O)N2CCN(c3cccc(C)c3C)CC2)c[nH]1", "Potency": "inconclusive [inhibitor, partial curve]"}
{"smiles": "COc1ccc(-n2nnc(C(=O)Nc3ccccc3F)c2N)cc1", "Potency": "inactive"}
{"smiles": "Cc1ccc(CN2CC(C(=O)OCc3ccccc3Cl)CC2=O)cc1", "note": "(centres undefined)", "Potency": "inactive"}
{"smiles": "CCCC(C)c1nnc(NC(=O)CN2C(=O)c3ccccc3C2=O)s1", "note": "(centres undefined)", "Potency": "inactive"}
{"smiles": "Clc1ccc(-c2nnc3sc(Cc4cccs4)nn23)c(Cl)c1", "Potency": "inconclusive [inhibitor, single point]"}
{"smiles": "Cc1cc(C)nc(NNS(=O)(=O)c2c(F)cc(F)cc2Br)n1", "Potency": "inconclusive [inhibitor, single point]"}
{"smiles": "O=C(COC(=O)c1cc(=O)[nH]c2ccccc12)Nc1ccc(F)cc1", "Potency": "inactive"}
{"smiles": "CCOC(=O)Nc1cc(=O)c2ccccc2o1", "Potency": "active: 13 µM"}
{"smiles": "O=C(Nc1ccc(OCC(=O)N2CCOCC2)cc1)c1cncc(Br)c1", "Potency": "inconclusive [inhibitor, single point]"}
{"smiles": "O=C(NC(=S)Nc1c(Cl)cc(Cl)cc1Cl)c1ccccc1", "Potency": "active: 9.2 µM"}
{"smiles": "Cc1ccc(Cc2nc3ccccc3nc2SCC(=O)NCCc2ccccc2)cc1", "Potency": "inconclusive [inhibitor, single point]"}
{"smiles": "COC(=O)c1c(NC(=O)c2nc(SC)ncc2Cl)sc2c1CCCC2", "Potency": "inactive"}
{"smiles": "CC(=O)c1cc(-c2ccccc2)n(CCC(=O)NCCc2ccccc2)c1C", "Potency": "inconclusive [inhibitor, single point]"}
{"smiles": "COc1ccc(CCNC(=O)c2oc3ccc(S(=O)(=O)N4CCOCC4)cc3c2C)cc1OC", "Potency": "inconclusive [inhibitor, partial curve, poor fit]"}
{"smiles": "COc1ccc(S(=O)(=O)NCCCCOc2ccc(Cl)cc2)cc1", "Potency": "active: 2.06 µM"}
{"smiles": "CCOc1cc(CNCc2ccccc2)ccc1OCC(=O)NC1CCCCC1", "Potency": "active: 16.4 µM"}
{"smiles": "COC(=O)c1cc(=O)n(Cc2ccc(F)cc2)c(=Nc2ccccc2)s1", "Potency": "inconclusive [inhibitor, single point]"}
{"smiles": "CS(=O)(=O)c1ccccc1C(=O)Nc1ccc(-c2nc3ccccc3o2)cc1", "Potency": "active: 23.1 µM"}
{"smiles": "Cc1cc(C)n(CC(=O)N/N=C/c2cc(Br)cc([N+](=O)[O-])c2O)n1", "Potency": "inconclusive [inhibitor, single point]"}
{"smiles": "Cc1nc2c(-c3ccc(F)cc3)c(C)nn2c(C)c1CCC(=O)N1CCN(c2ccc(F)cc2)CC1", "Potency": "active: 18.4 µM"}
{"smiles": "Cc1cccc(CCNC(=O)c2ccc3c(c2)nc2n3CCCCC2)c1", "Potency": "inconclusive [inhibitor, single point]"}
{"smiles": "N#Cc1ccccc1Sc1ccccc1C(=O)OCC(=O)NC1CCCCC1", "Potency": "inconclusive [inhibitor, partial curve]"}
{"smiles": "Cc1ccc(S(=O)(=O)N2CCC(C(N)=O)CC2)cc1C(=O)NC1CCCCC1", "Potency": "inconclusive [inhibitor, single point]"}
{"smiles": "O=C(CNC(=O)c1ccc(Cl)cc1Cl)OCN1C(=O)c2ccccc2C1=O", "Potency": "inactive"}
{"smiles": "COc1ccc(Cl)cc1N(C)C(=O)Cc1noc2ccc(C)cc12", "Potency": "active: 18.4 µM"}
{"smiles": "O=C(NC(NC(=S)Nc1ccc(Cl)cc1)C(Cl)(Cl)Cl)c1ccco1", "note": "(centres undefined)", "Potency": "inconclusive [inhibitor, single point]"}
{"smiles": "COc1ccccc1N1CCN(C(=O)Cn2cnc3sc(C)c(S(=O)(=O)N4CCC(C)CC4)c3c2=O)CC1", "Potency": "inconclusive [inhibitor, partial curve]"}
{"smiles": "CCCCCN1CN(S(=O)(=O)c2cccs2)c2nc3ccccc3nc21", "Potency": "inactive"}
{"smiles": "COc1cc2oc(=O)cc(CN3CCOCC3)c2cc1Cl", "Potency": "inactive"}
{"smiles": "COC(=O)c1cccc(S(=O)(=O)N2CCC(n3nnc4cc(F)ccc43)CC2)c1", "Potency": "inactive"}
{"smiles": "O=C(CCCCCN1C(=O)[C@@H]2Cc3ccccc3CN2C1=O)NCCc1ccccc1", "Potency": "inconclusive [inhibitor, single point]"}
{"smiles": "CC(C)c1cc(N2CCOCC2)n2ncc(-c3ccccc3)c2n1", "Potency": "inconclusive [inhibitor, single point]"}
{"smiles": "Cn1c(=O)c(CCc2ccccc2)nc2cnc(N3CCNCC3)nc21", "Potency": "active: 9.2 µM"}
{"smiles": "COC(=O)c1ccccc1NC(=O)COc1ccc(S(=O)(=O)NC(C)C)cc1", "Potency": "inconclusive [inhibitor, partial curve]"}
{"smiles": "CCN(C(=O)COC(=O)CCC(=O)c1ccc(Cl)cc1)c1c(N)n(Cc2ccccc2)c(=O)[nH]c1=O", "Potency": "active: 23.1 µM"}
{"smiles": "O=C1NC[C@@H](CCCCN2C[C@H](Cc3ccc(O)cc3)N(CCc3ccccc3)C(=O)C2=O)N(CCc2ccc(O)cc2)C1=O", "Potency": "inactive"}
{"smiles": "Cc1ccc(NC(=O)C2CCC(CNC(=O)[C@@H]3Cc4ccccc4CN3)CC2)cc1", "note": "(some centres undefined)", "Potency": "inconclusive [inhibitor, single point]"}
{"smiles": "Cc1cccc(Cc2c(C)nc3nc(SCC(=O)NCc4ccc(F)cc4)nn3c2C)c1", "Potency": "active: 23.1 µM"}
{"smiles": "COc1ccccc1N1CCN(C(=O)c2ccc(-c3ccc(Cl)cc3)o2)CC1", "Potency": "active: 2.31 µM"}
{"smiles": "NC(=O)c1cc2cc(Br)ccc2oc1=NCc1ccccc1", "Potency": "inactive"}
{"smiles": "O=C(CSc1ncnc2ccccc12)N1CCNC1=O", "Potency": "inactive"}
{"smiles": "Cc1ccc(NC(=S)Nc2ccc3nc(-c4ccccn4)c(-c4ccccn4)nc3c2)cc1C", "Potency": "inconclusive [inhibitor, single point]"}
{"smiles": "COc1cccc(CNC23CC4CC(CC(C4)C2)C3)c1OCc1ccccc1", "Potency": "active: 10.3 µM"}
{"smiles": "COc1ccc(S(=O)(=O)Nc2cccnc2)c(Cl)c1Cl", "Potency": "inactive"}
{"smiles": "COc1ccc(C(=O)NC(C)CCc2ccccc2)c(O)c1", "note": "(centres undefined)", "Potency": "inconclusive [inhibitor, single point]"}
{"smiles": "CCOC(=O)c1c[nH]c2ccc([N+](=O)[O-])cc12", "Potency": "inconclusive [inhibitor, single point]"}
{"smiles": "C=CCn1c(CNc2ccc(C)cc2)nnc1SCC(=O)N/N=C/c1ccc(O)cc1", "Potency": "inconclusive [inhibitor, partial curve, poor fit]"}
{"smiles": "CCCn1c(N)c(C(=O)CN(C)CC(=O)Nc2cc(C)ccc2C)c(=O)[nH]c1=O", "Potency": "active: 13 µM"}
{"smiles": "COc1ccc(CN=C2NN=C(c3ccccc3)CS2)cc1", "Potency": "inconclusive [inhibitor, single point]"}
{"smiles": "Cc1ccc(S(=O)(=O)NCCc2csc3nc(-c4ccccc4F)nn23)cc1C", "Potency": "inconclusive [inhibitor, single point]"}
{"smiles": "COC(=O)c1c(SCC(=O)Nc2cccc(Cl)c2C)[nH]c2ccccc2c1=O", "Potency": "inconclusive [inhibitor, partial curve]"}
{"smiles": "Cc1ccc(NC(=S)N2CCCCC2)cc1C", "Potency": "inconclusive [inhibitor, single point]"}
{"smiles": "CCCCN1C(=O)C(CC(=O)NCc2cccc3ccccc23)CC(C(=O)N2CCCCCC2)=C1C", "note": "(centres undefined)", "Potency": "inconclusive [inhibitor, single point]"}
{"smiles": "Cc1noc(C)c1COc1ccccc1C(=O)NNC(=O)c1ccc(F)cc1", "Potency": "inconclusive [inhibitor, single point]"}
{"smiles": "CCN(CC)C(=O)C1=C(C)N(Cc2ccccc2)C(=O)C(CC(=O)NC2CC2)C1", "note": "(centres undefined)", "Potency": "inconclusive [inhibitor, single point]"}
{"smiles": "COc1cccc(-c2nc(SCc3ccc(C)cc3)n3[nH]c(=O)cc3n2)c1", "Potency": "active: 16.4 µM"}
{"smiles": "CC(C)(C)OC(=O)N1CCC(c2c(C(=O)N3CCC(c4ccccc4)C3)cnn2-c2ccc(Cl)cc2)CC1", "note": "(centres undefined)", "Potency": "active: 16.4 µM"}
{"smiles": "CC(NC(=O)c1cccc(F)c1)C1CC2CCC1C2", "note": "(centres undefined)", "Potency": "inactive"}
{"smiles": "O=C(NC1CCCN(Cc2ccc(Cl)cc2)C1)c1cccc(N2CCCC2=O)c1", "note": "(centres undefined)", "Potency": "inconclusive [inhibitor, partial curve]"}
{"smiles": "CC(=O)c1cccc(N(CC(=O)NC2CCCCC2)C(=O)CNC(=O)c2cccs2)c1", "Potency": "inactive"}
{"smiles": "COc1ccccc1-c1nc(S(=O)(=O)c2ccccc2)c(N2CCC(C)CC2)o1", "Potency": "active: 3.66 µM"}
{"smiles": "CCC/C(=C1/c2ccccc2C(=O)N1c1ccccc1)c1ccc2c(c1)OCO2", "activity change, negative = growth inhibition": "inconclusive: -32.1% [inhibitor]"}
{"smiles": "CCC(=O)N(CCC1(C(C)C)CCOC(C)(C)C1)C(C)c1cccs1", "note": "(centres undefined)", "Potency": "inconclusive [inhibitor, single point]"}
{"smiles": "O=C([C@H](Cc1ccc(O)cc1)n1cc(CCO)nn1)N1CCNCC1", "Potency": "inactive"}
{"smiles": "CN(C)Cc1ccccc1-c1cc(-n2ccnc2)ncn1", "Potency": "inactive"}
{"smiles": "CCOC(=O)C1CCN(C(=O)COc2ccc([N+](=O)[O-])cc2)CC1", "Potency": "inactive"}
{"smiles": "Cc1ccccc1OCc1nnc(SCc2cc(=O)c3ccc(C)c(C)c3[nH]2)n1C", "Potency": "active: 16.4 µM"}
{"smiles": "CN(C)S(=O)(=O)c1ccc(C(=O)Nc2ccccc2C(=O)O)cc1", "Potency": "inactive"}
{"smiles": "CCOc1ccccc1NC(=O)c1ccccc1NC(=O)c1ccco1", "Potency": "inconclusive [inhibitor, single point]"}
{"smiles": "Cc1c(C(=O)NCC(c2ccco2)N(C)C)oc2c(Cl)cccc12", "note": "(centres undefined)", "Potency": "inconclusive [inhibitor, partial curve, poor fit]"}
{"smiles": "O=C(NCc1cccnc1)c1cc(C2CCCCN2S(=O)(=O)c2ccc(F)cc2F)on1", "note": "(centres undefined)", "Potency": "inconclusive [inhibitor, single point]"}
{"smiles": "Cc1[nH]c2ccccc2c1C(=O)C(=O)NC1CC(=O)N(c2ccc(F)cc2)C1", "note": "(centres undefined)", "Potency": "inactive"}
{"smiles": "O=C(Nc1cccc(/C=C/c2nc3ccccc3c(=O)[nH]2)c1)c1ccccc1Cl", "Potency": "active: 14.6 µM"}
{"smiles": "CC(C)(C)c1ccc(C2=CSC3=NCCN23)cc1", "Potency": "inconclusive [inhibitor, single point]"}
